# Experimental data published in PMC5700166.
# The entries are a selection whose mix differs from that of the whole data set. The list includes weakly bound sequences.
# Tests used:
# Test in all cases: protein-binding microarray (PBM)
# Conditions in all cases: PBM: ~300 nM protein, 6 mM HEPES pH 7.8, 80 mM KCl, 0.5 mM EDTA, 0.5 mM EGTA, 6% glycerol, 35 ng/ul poly-dIdC, 1% milk, 1 h, room temperature; Ap Aiptasia and Nv Nematostella (sea anemones) / Co Capsaspora / Aq Amphimedon (sponge) / Dm Drosophila / Hu human; RHD is the Rel homology domain; high values mean tight binding; most listed sequences are background and not binding sites; double strand, one strand shown
# GST-Ap-NF-kB RHD = target: T1, GST-Ap-NF-kB RHD (UniProt A0A913YAJ5)
# T1 sequence: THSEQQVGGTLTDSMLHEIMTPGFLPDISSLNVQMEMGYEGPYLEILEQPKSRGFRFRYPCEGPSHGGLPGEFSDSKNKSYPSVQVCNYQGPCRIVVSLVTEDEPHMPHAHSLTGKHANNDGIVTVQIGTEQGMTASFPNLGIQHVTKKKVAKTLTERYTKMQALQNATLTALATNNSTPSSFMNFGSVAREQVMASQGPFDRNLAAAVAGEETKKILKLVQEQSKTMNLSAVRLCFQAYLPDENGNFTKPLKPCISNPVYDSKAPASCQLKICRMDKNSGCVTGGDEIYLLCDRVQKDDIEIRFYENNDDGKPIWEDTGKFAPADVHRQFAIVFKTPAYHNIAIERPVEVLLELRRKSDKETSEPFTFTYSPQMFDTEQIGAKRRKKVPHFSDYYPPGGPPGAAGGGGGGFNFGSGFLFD
# [1] = target: T2, GST-Nv-NF-kB (Cys allele) (UniProt E5G601)
# T2 sequence: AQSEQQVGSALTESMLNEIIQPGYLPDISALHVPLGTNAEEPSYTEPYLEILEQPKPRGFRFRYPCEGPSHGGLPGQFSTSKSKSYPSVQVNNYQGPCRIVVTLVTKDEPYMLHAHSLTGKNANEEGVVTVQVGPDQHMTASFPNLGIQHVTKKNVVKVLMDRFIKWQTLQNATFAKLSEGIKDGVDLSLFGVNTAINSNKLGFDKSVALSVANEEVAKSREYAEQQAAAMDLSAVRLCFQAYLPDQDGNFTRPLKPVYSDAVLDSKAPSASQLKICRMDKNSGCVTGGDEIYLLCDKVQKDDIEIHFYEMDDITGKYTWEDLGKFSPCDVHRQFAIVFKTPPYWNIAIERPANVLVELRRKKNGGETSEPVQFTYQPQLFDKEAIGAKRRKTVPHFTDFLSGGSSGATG
# GST-Co-NF-kB = target: T3, GST-Co-NF-kB (UniProt F1ARL5)
# T3 sequence: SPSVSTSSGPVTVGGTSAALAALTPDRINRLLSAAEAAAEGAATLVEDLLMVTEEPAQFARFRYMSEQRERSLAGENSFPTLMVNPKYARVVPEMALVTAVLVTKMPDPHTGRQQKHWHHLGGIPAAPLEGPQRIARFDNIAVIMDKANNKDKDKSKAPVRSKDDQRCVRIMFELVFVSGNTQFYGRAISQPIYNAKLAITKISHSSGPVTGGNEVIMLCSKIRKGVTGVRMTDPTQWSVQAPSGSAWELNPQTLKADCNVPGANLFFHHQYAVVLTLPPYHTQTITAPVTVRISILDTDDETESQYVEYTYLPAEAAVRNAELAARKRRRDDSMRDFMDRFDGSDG
# GST-Dm-Relish = target: T4, GST-Dm-Relish (UniProt Q94527)
# T4 sequence: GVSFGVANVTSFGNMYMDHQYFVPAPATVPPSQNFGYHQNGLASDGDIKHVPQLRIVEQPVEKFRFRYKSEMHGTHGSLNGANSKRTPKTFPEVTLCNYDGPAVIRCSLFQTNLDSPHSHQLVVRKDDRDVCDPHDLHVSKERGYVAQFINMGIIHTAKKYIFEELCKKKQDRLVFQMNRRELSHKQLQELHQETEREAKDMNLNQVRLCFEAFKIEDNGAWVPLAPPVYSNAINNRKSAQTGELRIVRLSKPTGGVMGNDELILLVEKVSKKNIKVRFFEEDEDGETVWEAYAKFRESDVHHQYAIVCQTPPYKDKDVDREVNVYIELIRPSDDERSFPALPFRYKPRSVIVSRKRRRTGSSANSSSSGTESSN
# GST-Aq-NF-kB = target: T5, GST-Aq-NF-kB (UniProt A9Y5G7)
# T5 sequence: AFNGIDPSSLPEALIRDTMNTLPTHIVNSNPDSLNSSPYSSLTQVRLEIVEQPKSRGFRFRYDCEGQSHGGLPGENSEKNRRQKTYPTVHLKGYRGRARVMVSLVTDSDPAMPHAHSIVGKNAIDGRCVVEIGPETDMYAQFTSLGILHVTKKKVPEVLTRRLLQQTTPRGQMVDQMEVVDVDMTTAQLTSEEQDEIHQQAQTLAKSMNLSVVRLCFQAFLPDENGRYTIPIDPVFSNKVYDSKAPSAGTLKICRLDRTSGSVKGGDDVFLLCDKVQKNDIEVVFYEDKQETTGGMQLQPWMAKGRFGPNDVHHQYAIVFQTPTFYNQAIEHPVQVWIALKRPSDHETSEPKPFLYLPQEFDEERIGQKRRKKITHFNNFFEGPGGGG
Sequence,binding signal (GST-Ap-NF-kB RHD),binding signal [1],binding signal (GST-Co-NF-kB),binding signal (GST-Dm-Relish),binding signal (GST-Aq-NF-kB)
CCGATTAACATCAATTCGTGTAATGATGTTAATCGGGTCTTGATTCGCTTGACGCTGCTG,-0.705 z-score,-0.369 z-score,-0.182 z-score,-0.355 z-score,-0.691 z-score
CCGATTAACATCACGCTGGACGCTGATGTTAATCGGGTCTTGATTCGCTTGACGCTGCTG,-0.565 z-score,-1.35 z-score,-0.551 z-score,-0.553 z-score,-0.581 z-score
CCGATTAACATCAGGCCTTTAACTGATGTTAATCGGGTCTTGATTCGCTTGACGCTGCTG,-0.558 z-score,-0.0759 z-score,-1.07 z-score,-0.0364 z-score,-0.39 z-score
CCGATTAACATCAGGATAGTCCATGATGTTAATCGGGTCTTGATTCGCTTGACGCTGCTG,-0.115 z-score,-0.468 z-score,-0.92 z-score,-0.152 z-score,0.68 z-score
CCGATTAACATCAGGAAAATGCCTGATGTTAATCGGGTCTTGATTCGCTTGACGCTGCTG,-0.682 z-score,0.181 z-score,0.178 z-score,0.302 z-score,0.0724 z-score
CCGATTAACATCACCGTTTAAGCTGATGTTAATCGGGTCTTGATTCGCTTGACGCTGCTG,0.048 z-score,0.954 z-score,-0.493 z-score,0.433 z-score,0.216 z-score
CCGATTAACATCAACACTGATCGTGATGTTAATCGGGTCTTGATTCGCTTGACGCTGCTG,-0.427 z-score,-0.0331 z-score,0.112 z-score,-0.0591 z-score,-0.403 z-score
CCGATTAACATCAGGGAAATCCCTGATGTTAATCGGGTCTTGATTCGCTTGACGCTGCTG,9.75 z-score,11.4 z-score,4.02 z-score,10.3 z-score,10.9 z-score
CCGATTAACATCAGGGGATTTTATGATGTTAATCGGGTCTTGATTCGCTTGACGCTGCTG,10.4 z-score,11.7 z-score,4.81 z-score,9.55 z-score,8.66 z-score
CCGATTAACATCAGGAAACAATGTGATGTTAATCGGGTCTTGATTCGCTTGACGCTGCTG,-0.0973 z-score,-0.115 z-score,0.917 z-score,0.557 z-score,-0.156 z-score
CCGATTAACATCATTTCAACGTATGATGTTAATCGGGTCTTGATTCGCTTGACGCTGCTG,-0.467 z-score,-0.698 z-score,-0.473 z-score,-0.503 z-score,-0.434 z-score
CCGATTAACATCAGAAGTTCATGTGATGTTAATCGGGTCTTGATTCGCTTGACGCTGCTG,-0.0773 z-score,-0.996 z-score,0.119 z-score,-0.21 z-score,-0.363 z-score
CCGATTAACATCATATTTGACACTGATGTTAATCGGGTCTTGATTCGCTTGACGCTGCTG,-0.924 z-score,-0.217 z-score,-0.183 z-score,-0.487 z-score,-0.316 z-score
CCGATTAACATCACTTCGTGAATTGATGTTAATCGGGTCTTGATTCGCTTGACGCTGCTG,-0.743 z-score,-0.432 z-score,-1.26 z-score,-0.868 z-score,-0.622 z-score
